In one assay the target is T1, FXR (Homo sapiens, UniProt Q96RI1).
T1 sequence (Q96RI1 262-486 limits assumed): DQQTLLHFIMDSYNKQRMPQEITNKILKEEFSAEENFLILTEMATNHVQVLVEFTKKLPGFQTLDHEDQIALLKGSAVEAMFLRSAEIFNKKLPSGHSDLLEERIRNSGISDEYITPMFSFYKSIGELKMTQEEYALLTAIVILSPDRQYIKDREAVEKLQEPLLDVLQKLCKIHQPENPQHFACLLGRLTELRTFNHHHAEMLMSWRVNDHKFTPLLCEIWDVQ
Description: LanthaScreen TR-FRET FXR coactivator recruitment assay. The following applies: for FXR antagonist activity (in words): in the presence of GW4064 at its EC50 ([…] nM).

The next assay has as its target T2, TGR5 (Homo sapiens, UniProt Q8TDU6).
T2 construct: endogenous in cells; host or cells: Caco-2 (ATCC), transiently transfected only with the CRE-luciferase and Renilla reporter plasmids
T2 sequence (Q8TDU6 1-330): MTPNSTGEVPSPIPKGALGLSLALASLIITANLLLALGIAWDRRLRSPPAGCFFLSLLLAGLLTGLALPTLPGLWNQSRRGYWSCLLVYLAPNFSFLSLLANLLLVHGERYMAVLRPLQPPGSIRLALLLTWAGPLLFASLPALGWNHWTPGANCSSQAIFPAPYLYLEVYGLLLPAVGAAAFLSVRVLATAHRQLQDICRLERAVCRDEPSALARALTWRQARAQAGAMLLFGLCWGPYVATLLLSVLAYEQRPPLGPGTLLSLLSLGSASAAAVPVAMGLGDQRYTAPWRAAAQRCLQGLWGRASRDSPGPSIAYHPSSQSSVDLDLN
Description: TGR5 luciferase reporter assay in Caco-2 cells. Format: cell-based. The following applies: overnight, in the presence of 10 μM LCA.

Another assay relates to B. theta. Description: Inhibitor screen in bacteria, B. theta culture. Format: cell-based, Bacteroides thetaiotaomicron VPI-5482. The following applies: FIG. 2c, 100 μM inhibitor, 21 h, replicates 1-3. The procedure:
Bacterial Culturing. All bacterial strains were cultured at 37° C. in Cullen-Haiser Gut (CHG) media (which consists of brain heart infusion media (Bacto™ BHI, BD) supplemented with 1% BBL vitamin K1-hemin solution (BD), 1% trace minerals solution (ATCC), 1% trace vitamins solution (ATCC), 5% fetal bovine serum (Hyclone), 1 g/L cellubiose, 1 g/L maltose, and 1 g/L fructose) or BHI^+ (Bacto™ BHI, BD, supplemented with 5 mg/L hemin, and 2.5 uL/L Vitamin K1). All strains were grown under anaerobic conditions in a anaerobic chamber (Coy Lab Products Airlock) with a gas mix of 5% hydrogen and 20% carbon dioxide nitrogen. Escherichia coli was grown aerobically at 37° C. in LB medium supplemented with ampicillin to select for the pET21b plasmid.
Inhibitor Screen in Bacteria. Bacterial cultures were diluted to OD600 of 0.1 in 4 mL BHI^+, containing 100 μM taurine conjugated bile acid pool 100 μM inhibitors. […] After 21 h, serial dilutions were plated on BHI^+ agar to determine cell viability (CFU/mL). […] The cultures were spun down in a centrifuge at 2,500 g for 5 mins to obtain better separation. The organic layer was then removed and the aqueous layer was extracted again using 2 mL of ethyl acetate.

“And” between values parts separate entries of the source, which are not always exact repeats. Equal values may be shown once.

Turning to `C[C@H](CCC(=O)CF)[C@H]1CC[C@H]2[C@@H]3[C@H](O)C[C@@H]4C[C@H](O)CC[C@]4(C)[C@H]3CC[C@]12C` [Compound 7], the “FXR agonist activity (in words)” value at FXR (coactivator recruitment assay, listed as compound 7) is reported as “does not activate FXR”. For the same compound, the “FXR antagonist activity (in words)” value is given as “neither an agonist nor an antagonist for FXR” on FXR and “does not possess FXR antagonist activity at physiologically relevant concentrations” on FXR (listed as compound 7). The “TGR5 antagonist activity (in words)” value on TGR5 is “neither agonized nor antagonized TGR5”; on TGR5 (listed as compound 7) it was “did not antagonize TGR5”. Also, the “% deconjugation of TDCA” value with B. theta (100 μM bile acid pool) was 0.33% and 0.00% and 0.20%. The “% deconjugation of TUDCA” value in the assay on B. theta (100 μM bile acid pool) was 0.87% and 1.55% and 0.96%. Besides, the “% deconjugation of TCA” value in the assay with B. theta (100 μM taurine conjugated bile acid pool) was 0.26% and 0.24% and 0.00%.
